Experimental findings from PubChem BioAssay AID1963576 (National Center for Advancing Translational Sciences (NCATS), 2024) are described below.

About 60 (0.1%) of roughly 46,000 compounds were called active. About 3% were inconclusive and are not listed. The call rests on the fitted dose curve; in most records, active means well fitted inhibition curve with a large enough effect; inconclusive means small, poorly fitted or top-dose-only effect; inactive means no such curve, though single readings can be large or run the other way. Some of the results follow.

This assay is described as follows: Primary qHTS assay for Inhibitors of ovarian cancer metastasis using an organotypic tumor microenvironment (TME) model. Further: nearly all actives have a fitted effect of over 65% in size.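 On activity change, negative = inhibition: plate controls were DMSO wells for no effect and tomatine positive control wells for full effect.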 Particulars: SKOV3ip1-GFP adhesion/invasion on 3D omental model, fluorescence; series mostly up to 45.8 µM; activity change, negative = inhibition: at the top concentration. Summed up:
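A 3D layer of primary human omental fibroblasts, mesothelial cells, fibronectin and collagen I, grown 48 hr, received SKOV3ip1-GFP cells in serum-free medium plus compounds at 0.36-46 umol/L. After 2 hr RT and 16 hr 37 C, fixed adherent GFP cells were counted; normalized to DMSO and tomatine.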
For orientation: In qHTS, concentration-response curves come from the screen itself.
Take `COc1cc(C)cc2oc(=O)c(CC(=O)NCCc3ccc(Cl)cc3)c(C)c12`: the “activity change, negative = inhibition” value is inactive: -6.81%.

Turning to `O=C(CCn1c(=O)c2cccn2c2cccnc21)N1CCN(c2ccccc2F)CC1`, the “activity change, negative = inhibition” value was inactive: -6.37%. Same read-out and setting: the figure for `Fc1cccc(-c2nnn3c2nc(NCCc2ccccc2)c2ccccc23)c1` is inactive: -9.09%; for `O=C(COCc1cc(-c2cccs2)on1)N1CCN(c2cccc(Cl)c2)CC1` it is inactive: 3.4%; for `COc1ccc2cc(C(=O)NCc3ccc4c(c3)CCN4C(=O)c3ccc(F)cc3)[nH]c2c1` it is inactive: -1.1%. `COc1ccc(CC(=O)NCCc2csc(-c3cccc(C)c3)n2)cc1`: the “activity change, negative = inhibition” value was inactive: 8.82%. Turning to `CC(C)OCCCNC(=O)Cn1ccc2cc(S(=O)(=O)N3CCCCCC3)ccc21`, the “activity change, negative = inhibition” value is inactive: -10.8%. As for `CC(C)CNC(=O)N1[C@H](c2cccs2)[C@@H](C)C(=O)[C@@H](C)[C@@H]1c1cccs1`, the “activity change, negative = inhibition” value is inactive: -6.29%. For the molecule `CC(=O)c1cccc(NC(=O)CC(c2ccc(C)cc2)N2Cc3ccccc3C2=O)c1` (centres undefined), the molecule was called inactive. Regarding `Cc1nc(-c2ccccc2)sc1-c1ccc(SCC(=O)NCc2ccc(Cl)cc2)nn1`, the “activity change, negative = inhibition” value was inactive: 8.24%.

With `Cc1oc(-c2ccccc2Cl)nc1Cn1c(SCc2cccc(F)c2)nc2cccnc21`, the “activity change, negative = inhibition” value was inactive: 4.1%. As for `Cc1ccc(-n2c(=O)[nH]c3cc(C(=O)NCc4ccccc4)ccc3c2=O)cc1`, the “activity change, negative = inhibition” value is inactive: 3.24%.

Turning to `Cc1ccc(CCNS(=O)(=O)c2ccc3c(c2)CC(C)N3C(=O)C2CCC2)cc1` (centres undefined), the “activity change, negative = inhibition” value was inactive: -1.03%. In the case of `NCCCCNCCCN`, the “activity change, negative = inhibition” value was inactive: -0.101%.

On to `COCCCNC(=O)Cn1c(=O)nc(-c2ccccc2)c2ccccc21`, for which the “activity change, negative = inhibition” value was inactive: -3.46%. Turning to `COc1cc2ncc(C(=O)c3ccc(C)cc3)c(N3CCCCC3)c2cc1OC`, the call was inactive.

For the molecule `Nc1ncn([C@H]2C[C@H](O)[C@@H](CO)O2)c(=O)n1`, the “activity change, negative = inhibition” value is inactive: 7.02%. For `Cc1ccc(-n2nc3c(=O)n(CC(=O)NCCC(C)C)nc(C)c3c2C)cc1`, the “activity change, negative = inhibition” value was inactive: 0.175%. In the case of `CC(CNC(=O)c1nnc(Cc2ccc(F)cc2)o1)c1ccccc1` (centres undefined), the “activity change, negative = inhibition” value is inactive: 1.23%. On the same count and under the same terms, the figure for `COc1cccc(NC(=O)CSc2nccn2C2CCCC2)c1` is inactive: -34.7%; for `O=C(Cn1cc(S(=O)(=O)Cc2cccc(Cl)c2)c2ccccc21)Nc1ccccc1Cl` it is inactive: -0.552%; for `Cc1cccn2c(=O)c(C(=O)NCCc3ccccc3)cnc12` it is inactive: 0.646%.

Regarding `CCOc1ccc(CCNC(=O)c2cc(C)nc3c2c(C)nn3-c2cccc(F)c2)cc1`, the “activity change, negative = inhibition” value was inactive: -19.7%. As for `CCCCC12CN3CC(C)(CN(C1)C3c1ccc(O)c(OC)c1)C2=O` (centres undefined), the “activity change, negative = inhibition” value was inactive: -1.19%. As to `COc1ccc(Cn2cc(C(=O)c3ccc(C)c(C)c3)c(=O)c3ccccc32)cc1`, the “activity change, negative = inhibition” value was inactive: 4.7%.

Consider `Cc1ccc(F)cc1NC(=O)Cn1c(C)cc(C)c(C#N)c1=O`, for which the “activity change, negative = inhibition” value is inactive: -9.8%. As to `COc1ccc(C2=C(N3CCN(c4cccc(C)c4)C(C)C3)c3ccccc3C2=O)cc1` (centres undefined), the “activity change, negative = inhibition” value was inactive: -2.12%. As for `COc1cccc(CNC(=O)Cc2c(C)c3ccc(OC)c(C)c3oc2=O)c1`, the molecule was called inactive.

Consider `O=C(NC1CCCC1)c1ccc2c(c1)N(Cc1ccccc1)C(=O)c1ccccc1S2`, for which the “activity change, negative = inhibition” value was inactive: -3.78%.

On to `CC1CCN(c2nc3ccc(C(=O)NCc4ccccc4Cl)cc3s2)CC1`, for which the “activity change, negative = inhibition” value was inactive: 2.46%. Regarding `Cc1ccc(S(=O)(=O)c2nnn3c2nc(NCCc2ccccc2)c2sccc23)cc1`, the molecule was called inactive. Turning to `C[C@H](O)[C@@H]1C(=O)N2C(C(=O)O)=C(S[C@@H]3CN[C@H](CNS(N)(=O)=O)C3)[C@@H](C)[C@@H]12`, the “activity change, negative = inhibition” value was inactive: 18.9%. With `COc1ccc(N2CCN(Cc3nc4c(c(=O)[nH]c(=O)n4C)n3CC(C)C)CC2)cc1`, the “activity change, negative = inhibition” value was inactive: 1.19%. As to `O=C(NCc1cccc(Br)c1)c1ccc(NC(=O)N2CCCCc3ccccc32)cc1`, the “activity change, negative = inhibition” value was inactive: 6.05%. Turning to `CCc1ccc(S(=O)(=O)c2cn(Cc3ccccc3F)c3cc(OC)c(OC)cc3c2=O)cc1`, the “activity change, negative = inhibition” value is inactive: 10.9%. Regarding `Cc1ccc(CNC(=O)c2c[nH]n3c(=O)c(Cc4ccc(Cl)cc4)c(C)nc23)cc1`, the call was inactive.

As for `Cc1ccccc1C(=O)Nc1c(C)nc2ccccn2c1=O`, the “activity change, negative = inhibition” value was inactive: -6.75%. For `CC(=O)c1ccc(NS(=O)(=O)c2ccc3[nH]c4c(c3c2)CCCC4)cc1`, the “activity change, negative = inhibition” value is inactive: -1.44%.

`Cn1c(=O)oc2cc(S(=O)(=O)N3CCCC(C(=O)NCCc4ccccc4)C3)ccc21` (centres undefined): the molecule was called inactive. On to `Cc1ccc(CCNC(=O)c2c3c(nc4ccccc24)C(=O)N(C2CCCCC2)C3)cc1`, for which the “activity change, negative = inhibition” value was inactive: -14.9%. In the case of `Cc1cccc(NC(=O)CS(=O)(=O)c2cccc3nsnc23)c1`, the “activity change, negative = inhibition” value was inactive: -1.08%. With `O=C(Cc1ccc(-c2ccc(OCCN3CCOCC3)cc2)cn1)NCc1ccccc1`, the “activity change, negative = inhibition” value is inactive: -26%.

Take `COc1ccc(NC(=O)CSc2nnc(NC(=O)NC3CCCCC3)s2)cc1OC`: the “activity change, negative = inhibition” value is inactive: -15.4%.

Regarding `O=C(NCCc1ccccc1)c1nn(-c2ccc(F)cc2)nc1CO`, the call was inactive.

With `Cc1cccc(CNC(=O)c2ccc3nc(Cc4ccccc4)oc3c2)c1`, the “activity change, negative = inhibition” value is inactive: -19%. On to `CCOc1ccc(C2c3[nH]c4ccccc4c3CCN2C(=O)CSCc2ccc(F)cc2)cc1` (centres undefined), for which the “activity change, negative = inhibition” value was inactive: 4.41%.

As for `Cc1ccc(CNC(=O)c2c(-c3ccccc3Cl)noc2C)o1`, the “activity change, negative = inhibition” value is inactive: 15.9%. For the molecule `Cc1coc2cc3oc(=O)c(CC(=O)NCc4cccc(Cl)c4)c(C)c3cc12`, the “activity change, negative = inhibition” value is inactive: -25.5%.

In the case of `C[C@@H]1O[C@@H](O[C@H]2CC[C@@]3(C)[C@H](CC[C@@H]4[C@H]3C[C@@H](O)[C@]3(C)[C@@H](C5=CC(=O)OC5)CC[C@]43O)C2)C[C@H](O)[C@@H]1O[C@H]1C[C@H](O)[C@H](O[C@H]2C[C@H](O)[C@@H](O)[C@@H](C)O2)[C@H](C)O1` (stereo in doubt), the “activity change, negative = inhibition” value is inactive: -16% [at 92.2 µM].
